Test results as given in publication PMC12136788.
The list shows a part of the results.

B1: chr5:143665172:143665173:-_ENSMUSG00000029580_ENSMUST00000100497|perfect_dup|motif|central (ssRNA)
RNA: GGGAGUUCUACAGUCCGACGAUCGGCUUUUAGGAUGGCAAGGGACUUCCUGUAACAACGCAUCUCAUAUUUGGAAUGACGGUUAAAAAAACAACAAUGUGCAAUCAAAGUCCUCGGCCACAUUGUGAACUUUGGGGGAUGCUCCAACAGAGGAUUGAGCAUCA
B2: 121128427_121128547_4082_CDS_ENSMUSG00000027254_ENSMUST00000094639|mouse|control|control (ssRNA)
RNA: GGGAGUUCUACAGUCCGACGAUCGCUUUGAUCAGUAAACCCAAGCAGCUCAUCUUUCUGAGGCUCAGCGGGCUCCUGAGUCCUCACUUCUCCAGGAAGGCUGCCUGCUCCUGAAGCUGCGCCUGCCUCUCCAGUCUCAAACACCAACAGAGGAUUGAGCAUCA
B3: chr7:99579578:99579579:+_ENSMUSG00000052572_ENSMUST00000098308|mus_mus|FALSE|FALSE (ssRNA)
RNA: GGGAGUUCUACAGUCCGACGAUCAAAUCUCACAGAUUGCACACUGGUUCCGUAUAAAUUGUCAUUGUACUGGCCAGCUUCUAUAAAUUUGUGCUCUUGGAUAUCUUUCUCCAUUUGUUCUCUAGAAAUGACAAAGUGAUAGUCCAACAGAGGAUUGAGCAUCA
B4: chr17:56552419:56552420:-_ENSMUSG00000013236_ENSMUST00000086828|mus_mus|mus_mus_mus_hu_False|8_28 (ssRNA)
RNA: GGGAGUUCUACAGUCCGACGAUCAAAAAAUACACUAUUUAAAAAAAAUGAAAUGUCACGGGAUACAGUUACACUGAGAGUUUUAAAAGAAAGCUGGAUUCUGGUCCUUGCCAAAAGUCCCCAGGCUGAGUGCGGAAGAGGAGCCAACAGAGGAUUGAGCAUCA
B5: chr10:33214929:33214930:-_ENSG00000150093_ENST00000302278|hu_hu|hu_hu_hu_mus_True|28_38 (ssRNA)
RNA: GGGAGUUCUACAGUCCGACGAUCAACAAGUUCAUUGAAAAACUCUCCUCUGUCAGUAAGACUAAGCACAUUUUUGUAGCUAAAUGGGCUGGUGCAGUUCUGUUCACUUGUGCAAGGAUUUCUUAGCUUUGCUGGGGUUGUGCUCAACAGAGGAUUGAGCAUCA
B6: chr2:155494191:155494192:-_ENSMUSG00000038324_ENSMUST00000041059|mus_mus|FALSE|FALSE (ssRNA)
RNA: GGGAGUUCUACAGUCCGACGAUCCUCGUCACUUAUUUUUAGUUUCUGUCCCCGGAUAGAGAUGGUAGGCCUCAUAAGAAUUUCUACAAGAAGAUCAACACCUCCAAAUAAGUCAAAAAUAUAUGUAUUUGGGUAUGUAGCUUCCAACAGAGGAUUGAGCAUCA
B7: chr4:175158712:175158713:-_ENSG00000164117_ENST00000503293|hu_hu|FALSE|FALSE (ssRNA)
RNA: GGGAGUUCUACAGUCCGACGAUCGCGACGGGUAUUUCGAAUAAAUUCCCUUUUUGACAUUUUAUUCUUCACAUGAGGGCUAGUGAGGUCAAUGGAAAGUAGAAUCAAAGAGUAGCACAGUACAUAGACAGCAUCAGGACUAAGCAACAGAGGAUUGAGCAUCA
B8: chr4:17845017:17845018:+_ENSG00000109805_ENST00000514176|hu_mus|hu_hu_hu_mus_False|28_28 (ssRNA)
RNA: GGGAGUUCUACAGUCCGACGAUCGCUCUCUUAACUUGUAUCUUCAUUAAGGAACUCUGCAAGGUUAAGUUUACUUUUCUGUAGCGCAGCUGUUUUGGCUCGUCUGGUAGUCUCAUCCUUCAUUUCUGAUGGUGGUUCAUGAUCCAACAGAGGAUUGAGCAUCA
B9: 20490522_20494227_1144_3pUTR_ENSG00000055917_ENST00000338086|human|control|control (ssRNA)
RNA: GGGAGUUCUACAGUCCGACGAUCGGACGCUGACCUGCUCCAGCACGGAGAACCUGUUGCUGUCCAGGCUGAGCUUGUGAUGCUGCUUGCUGACUGGCUGUGUUAUUUGCCGCAGCUGCAGCUUGCUGCUGAAAUAAGUUGGCUCAACAGAGGAUUGAGCAUCA
B10: chr17:65944371:65944372:-_ENSMUSG00000024091_ENSMUST00000024897|mus_hu|FALSE|FALSE (ssRNA)
RNA: GGGAGUUCUACAGUCCGACGAUCGGGCCUCACACAGUACCGGCGAGGUGCUGUAGUCUUCACUUUGAAACACACUUUUCUAUCCGAUGGAUUUCGCAAUUUAAGAUUUGUAGUGACUACAUCUGUGAAGGGGCCUUUGAAUUUCAACAGAGGAUUGAGCAUCA
B11: chr19:8913615:8913616:-_ENSMUSG00000071658_ENSMUST00000096259|mus_hu|mus_mus_mus_hu_False|28_48 (ssRNA)
RNA: GGGAGUUCUACAGUCCGACGAUCAGGGUACCAAAACCUUCUGCCUGAAAUGGGUGCCCCACCCAGUAGGGAGUUGCAGCUGAAAGUAUCCGUAGCAGAAGCAGUGAAUGCAGAGAAGGAGGCCCCUGGGGAGGGCCAGGCCAGCAACAGAGGAUUGAGCAUCA
B12: 96192019_96192231_902_3pUTR_ENSMUSG00000033237_ENSMUST00000096250|mouse|control|control (ssRNA)
RNA: GGGAGUUCUACAGUCCGACGAUCGUCAUUAAUGCCCAGCUUUCGAGGUGGAUGAAAUAAAGAUUCCCAAAUCCAUUCUCCUGGUGUAUCUUCAUGAGCCUUGUUUCUGUCAGAAAUGAGAUCUCGCACUUCAUUGUCAUCAACCAACAGAGGAUUGAGCAUCA
B13: 134363384_134366832_6241_CDS_ENSG00000130723_ENST00000357304|human|control|control (ssRNA)
RNA: GGGAGUUCUACAGUCCGACGAUCCCGAGGCAGUGGCAUGGUCAGCUGUGGGAGCUGGGAGUCCAACAUCUGGGAGGCACCCAGGCCAGCAGCCUGGCUGAGCUGGCCCUCGUAGACCAGGGCUUGGUUCCCGCUCAUGGGCUGCAACAGAGGAUUGAGCAUCA
B14: chr9:128067362:128067363:+_ENSG00000165219_ENST00000394104|hu_hu|FALSE|FALSE (ssRNA)
RNA: GGGAGUUCUACAGUCCGACGAUCAAACUUUCCAAGGCUGCUCUUUGUUCGGGGAUCUCCCUCUUCAGAGCCAGUCAUUGCUAACUGCUGCAAAAGGCGGCCUACCUGCAUCAGAUUAAAUCGUGCUACUUCAUUAAUAGGAGCCAACAGAGGAUUGAGCAUCA
B15: 115282495_115292545_402_5pUTR_ENSG00000009307_ENST00000339438|human|control|control (ssRNA)
RNA: GGGAGUUCUACAGUCCGACGAUCUUGGAUCAAAGCUCAUCUCGCAGUGAUACUCAAAUAUUGCACUUUCAGUAGUAUUUGCUGAUUCUUCUUUUUCAGCACACGUUUCAAAGGAUGAAAGUUGCUAGUAUUAAAAAAAAGAGCCAACAGAGGAUUGAGCAUCA
B16: chr17:87832841:87832842:-_ENSMUSG00000036438_ENSMUST00000040440|perfect_dup|motif|central (ssRNA)
RNA: GGGAGUUCUACAGUCCGACGAUCACAACUUGGAAUGGAUUUGAGGCAAGUUGUGCCAUGAGCAGGUUUUCUUUAAGUGGCGGAACAAAGUUUAAAAAGCAAGUAACAAUAAAAGAAAAUGUUCCUGGUACAAUACCAGCAGUACAACAGAGGAUUGAGCAUCA
B17: 123313163_123334286_332_3pUTR_ENSG00000136861_ENST00000349780|human|control|control (ssRNA)
RNA: GGGAGUUCUACAGUCCGACGAUCUUCAAUUCAGUGAUUUGAUUUUCAAAGUCCUUCAUGUUCCGUGCUCUGGUGGGAGACACUGUUUCUUCUGACACAUUUGGGAGCAGACCAUUUCCCAACCCAGCAUUGGGGUUGAUGCCACAACAGAGGAUUGAGCAUCA
B18: chr7:888175:888176:+_ENSG00000164828_ENST00000456758|hu_hu|motif|central (ssRNA)
RNA: GGGAGUUCUACAGUCCGACGAUCUUUGUAAUUUUCUGAUUCAUAACUGAGCUUCAUUAAAACCACUUGAAAAAGUUGAACGGAAAAUGAUGAAAAAGAUGAUGCAGUGUAUCUGGCCAGCCACAAAAUCCUAUUCACGUAGAACAACAGAGGAUUGAGCAUCA
B19: chr3:10015032:10015033:+_ENSMUSG00000027533_ENSMUST00000029046|mus_mus|mus_mus_mus_hu_True|38_88 (ssRNA)
RNA: GGGAGUUCUACAGUCCGACGAUCGUUUUUACCAUCACAAGUGAUGAUACAGUCUGGCUUGGCCAUUGCGCCCAUUUUUCGCAAAGCUAUUCCCACUCCUAGCUCUUUCAUGUAUUCAUCAAAGCCUUUGCUGUCCACCAGGCGCAACAGAGGAUUGAGCAUCA
B20: chr4:144460044:144460045:+_ENSG00000153147_ENST00000283131|hu_mus|hu_hu_hu_mus_False|58_88 (ssRNA)
RNA: GGGAGUUCUACAGUCCGACGAUCACGGUCCAUAGCCUGAAGAUCAACUUGGGGAUUCCAAUCUGAGUCAUAUAAAAUUACUACAUCAGCAGUUGCAAGAUUGAUGCCCAGACCACCAGCACGUGUGCUUAGCAUAAAUACAAACAACAGAGGAUUGAGCAUCA
B21: 17015042_17015162_1969_CDS_ENSMUSG00000059273_ENSMUST00000098789|mouse|control|control (ssRNA)
RNA: GGGAGUUCUACAGUCCGACGAUCUCCAGAAUGUGGGGAGUCUCCAGGACCAUAGGGCAUCAUUGGGGGGCCACCAGGACCCAUGGGAGGGCCAGGGUUCAUGCCAGGACCCAUUGGCAUGUCAGGAUGCAUGUCAGGGUGCAUCAACAGAGGAUUGAGCAUCA
B22: 112724657_112724777_946_3pUTR_ENSG00000108061_ENST00000369452|human|control|control (ssRNA)
RNA: GGGAGUUCUACAGUCCGACGAUCUAAGCAUGCUGAGUUUUGACAAGUUUUUGAUGUCCUUUUCCACAGUAGUUAUACGAUUAAAGCGAAGGUAAAGAGUGGUGAGAGAAUCCAGCCUAUACACCACUGAAGGAAUUUCUCUCACAACAGAGGAUUGAGCAUCA

Each binder was assayed against T1, UNK ZnF1-3 (human, UniProt Q9C0B0 31-174) (assay: nsRBNS (natural sequence RNA bind-n-seq); RBNS binding buffer (assumed for nsRBNS): 25 mM Tris pH 7.5, 150 mM KCl, 3 mM MgCl2, 0.01% Triton X-100, 500 ug/ml BSA, 20 U/ml SUPERase-In, 4 C; UNK is unkempt and MSI1 is Musashi-1; names of the RNAs are library labels; protein concentration not given here; high values mean tight binding).
T1 sequence: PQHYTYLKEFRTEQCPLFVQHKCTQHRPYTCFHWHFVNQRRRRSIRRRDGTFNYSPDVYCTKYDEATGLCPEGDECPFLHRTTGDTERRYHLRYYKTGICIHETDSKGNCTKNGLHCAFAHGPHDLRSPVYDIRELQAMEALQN

| Binder | binding signal |
| --- | --- |
| B1 | 1.06 enrichment R |
| B2 | 0.677 enrichment R |
| B3 | 0.743 enrichment R |
| B4 | 2.57 enrichment R |
| B5 | 0.795 enrichment R |
| B6 | 1.55 enrichment R |
| B7 | 1.78 enrichment R |
| B8 | 0.407 enrichment R |
| B9 | 0.742 enrichment R |
| B10 | 0.898 enrichment R |
| B11 | 1.84 enrichment R |
| B12 | 0.821 enrichment R |
| B13 | 1.35 enrichment R |
| B14 | 0.718 enrichment R |
| B15 | 1.32 enrichment R |
| B16 | 1.53 enrichment R |
| B17 | 0.704 enrichment R |
| B18 | 1.47 enrichment R |
| B19 | 0.75 enrichment R |
| B20 | 1.42 enrichment R |
| B21 | 1.06 enrichment R |
| B22 | 0.785 enrichment R |
